In paper PMC9637814 one finds binding data, which are given here for 5 substances.

The chains behind the UniProt entries cited, without tags or fusion partners. Where a name states a change or a piece, a line headed by the entry shows the natural chain unless it says otherwise.
UniProt P14618: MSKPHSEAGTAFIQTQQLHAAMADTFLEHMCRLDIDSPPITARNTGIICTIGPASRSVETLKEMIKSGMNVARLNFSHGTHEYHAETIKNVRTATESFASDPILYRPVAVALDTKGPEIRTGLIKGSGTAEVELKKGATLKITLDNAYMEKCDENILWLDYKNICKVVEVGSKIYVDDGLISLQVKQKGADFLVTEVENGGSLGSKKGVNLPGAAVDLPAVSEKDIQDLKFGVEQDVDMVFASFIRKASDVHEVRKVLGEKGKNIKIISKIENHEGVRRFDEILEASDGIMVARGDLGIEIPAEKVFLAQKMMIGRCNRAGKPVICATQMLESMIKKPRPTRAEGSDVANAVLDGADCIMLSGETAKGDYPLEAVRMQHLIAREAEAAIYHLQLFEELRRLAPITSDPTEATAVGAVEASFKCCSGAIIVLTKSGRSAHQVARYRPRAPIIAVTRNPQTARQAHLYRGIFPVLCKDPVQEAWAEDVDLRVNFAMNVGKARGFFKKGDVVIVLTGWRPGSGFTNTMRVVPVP

These are yes or no findings as the source states them, for the method shown. For some of these results: Binding seen in cells or lysates may run through a third protein. Some entries that bind do so weakly or less than the wild type. For some of these results: Sequences can lack the tags named with a protein.

Assay [1] deals with T1, Flag-Aurora A (293T) (human) (UniProt O14965).
T1 sequence: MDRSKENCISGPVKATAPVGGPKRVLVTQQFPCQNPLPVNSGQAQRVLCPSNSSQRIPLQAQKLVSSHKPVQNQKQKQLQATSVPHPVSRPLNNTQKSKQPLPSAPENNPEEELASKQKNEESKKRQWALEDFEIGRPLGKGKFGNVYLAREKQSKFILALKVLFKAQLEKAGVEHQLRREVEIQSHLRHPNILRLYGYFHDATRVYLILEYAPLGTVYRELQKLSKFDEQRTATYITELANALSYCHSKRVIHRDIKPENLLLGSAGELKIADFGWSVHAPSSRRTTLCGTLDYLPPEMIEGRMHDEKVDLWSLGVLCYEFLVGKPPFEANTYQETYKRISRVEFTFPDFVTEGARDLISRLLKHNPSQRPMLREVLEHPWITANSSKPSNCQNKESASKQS
Briefly: co-IP; 293T cells cotransfected with Flag-tagged and HA-tagged protein, lysed in 50 mM Tris-HCl pH 7.4, 250 mM NaCl, 1 mM EDTA, 50 mM NaF, 0.5% Triton X-100; anti-Flag M2 resin, immunoblot.

Assay [2] addresses T2, Flag-Aurora A (H1299) (human) (UniProt O14965).
T2 sequence: T1 sequence
Description: co-IP; Flag-Aurora A and HA-PKM2 coexpressed in H1299 cells, with or without serine/glycine starvation for 24 h; extracts incubated with Flag beads, immunoblot. Background: Immunoblotting shows a protein as a band on a membrane.

The target in another assay is T3, GST-Aurora A (human) (UniProt O14965).
T3 sequence: T1 sequence
Briefly: pull-down; GST-tagged protein on resin incubated with purified His-PKM2 for 2 h at 4 °C, eluted with 10 mM GSH in 50 mM Tris pH 8.0, immunoblot; both purified.

In assay [3] the target is T4, Aurora A (human (endogenous in H1299)) (UniProt O14965).
T4 sequence: T1 sequence
Description: proximity ligation; fixed H1299 cells, Aurora A and PKM2 antibodies, interphase cells (G1, S, G2 by DAPI and PCNA); with or without serine/glycine starvation for 24 h; PKM knock-down as control.

The target in assay [4] is T4, Aurora A (human (endogenous in H1299)). Description: co-IP; endogenous proteins in H1299 cell extracts, precipitated with Aurora A or PKM2 antibody, immunoblot.
Assay [5] shares this target. Description: proximity ligation; fixed H1299 cells, Aurora A and PKM2 antibodies, cells in mitosis.

With “HA-PKM2 (293T) (from UniProt P14618 1-531)”, in assay [1], the binding result is listed as “binds”. On to “HA-PKM2 (H1299) (from UniProt P14618 1-531)”, for which the binding result in assay [2] is given as “binds”. As for “HA-PKM2 K433E mutant (from UniProt P14618 1-531)”, the binding entry in assay [1] was “no binding”. As to “His-PKM2 K433E mutant (from UniProt P14618 1-531)”, the binding entry with GST-Aurora A (human) was “no binding”.

With “pyruvate kinase M2 (PKM2) (from UniProt P14618 1-531)”, the binding result in assay [3] is listed as “binds”; in assay [4] it was “binds”; in assay [5], “no binding (condition: cells in mitosis)”.
